Assay results from the BET-seq Pho4 binding data (Le et al. 2018).
Some of the results follow. The energies were worked out here from pooled read counts, against the library average; single values are noisy.

target: T1, Pho4 (S. cerevisiae) (UniProt P07270); test: relative binding free energy (BET-seq); higher = weaker binding; conditions: reference: library average
T1 sequence: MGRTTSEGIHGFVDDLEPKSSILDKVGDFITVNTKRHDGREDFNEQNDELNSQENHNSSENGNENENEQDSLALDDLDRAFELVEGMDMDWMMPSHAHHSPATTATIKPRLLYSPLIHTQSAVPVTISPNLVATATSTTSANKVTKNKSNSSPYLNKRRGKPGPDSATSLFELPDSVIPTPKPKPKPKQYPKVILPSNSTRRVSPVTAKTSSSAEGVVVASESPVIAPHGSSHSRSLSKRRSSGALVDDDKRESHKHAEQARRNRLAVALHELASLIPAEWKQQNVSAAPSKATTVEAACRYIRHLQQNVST

| Sequence | relative binding free energy |
| --- | --- |
| ATTATCACGTGAATTG | 0.33 kcal/mol |
| AGAGTCACGTGGAAGT | 0.1 kcal/mol |
| ATTAGCACGTGGGAAT | -0.02 kcal/mol |
| TTTATCACGTGTATTG | 0.16 kcal/mol |
| AGTGGCACGTGGAGGG | -0.04 kcal/mol |
| TGATACACGTGAATTG | 0.14 kcal/mol |
| TTATTCACGTGGCGTA | 0.15 kcal/mol |
| GTGGTCACGTGGTGAC | 0 kcal/mol |
| TTAGACACGTGGGAAA | -0.01 kcal/mol |
| CATGGCACGTGGGTTT | -0.04 kcal/mol |
| GTGTACACGTGAAGGA | 0.31 kcal/mol |
| GTTTGCACGTGCATTT | 0.13 kcal/mol |
| TAGTGCACGTGGTAAA | -0.12 kcal/mol |
| TGTTGCACGTGGGAAT | -0.04 kcal/mol |
| GTCTTCACGTGGTTAA | 0.33 kcal/mol |
| ATGTTCACGTGATAAA | 0.37 kcal/mol |
| GGGGCCACGTGATGGG | 0.07 kcal/mol |
| GTTGCCACGTGCGTGG | -0.08 kcal/mol |
| TTAATCACGTGTTCGG | 0.08 kcal/mol |
| TTTGGCACGTGGTTTC | -0.12 kcal/mol |
| GGTTGCACGTGTTTGA | 0 kcal/mol |
| TCTGACACGTGGTTAT | -0.09 kcal/mol |
| TTTCTCACGTGAGGTT | 0.42 kcal/mol |
| GGGGTCACGTGTAGTA | 0.23 kcal/mol |
| TTGCGCACGTGGTGGC | -0.21 kcal/mol |

| Sequence | relative binding free energy |
| --- | --- |
| TTACTCACGTGTTAAG | 0.28 kcal/mol |
| AACGTCACGTGTTGTT | 0.14 kcal/mol |
| CTTAACACGTGGTTGG | 0.01 kcal/mol |
| TATTTCACGTGATTCG | 0.35 kcal/mol |
| TAGGACACGTGAGAGT | 0.13 kcal/mol |
| GTGGACACGTGGGCCT | -0.07 kcal/mol |
| TAATGCACGTGGGAAA | -0.14 kcal/mol |
| ATATGCACGTGGGAGT | -0.13 kcal/mol |
| TTGGGCACGTGAAAAT | 0.12 kcal/mol |
| TATGTCACGTGATATA | 0.16 kcal/mol |
| TCAGACACGTGGTTGG | -0.02 kcal/mol |
| GATGGCACGTGGGGGA | -0.15 kcal/mol |
| TTTGGCACGTGGAATC | -0.01 kcal/mol |
| CTGGGCACGTGAAGCG | 0.22 kcal/mol |
| TATTTCACGTGGCGTA | 0.16 kcal/mol |
| GTTGTCACGTGAGTGG | 0.25 kcal/mol |
| CGGTGCACGTGGTGGT | -0.1 kcal/mol |
| TAGGGCACGTGGACAG | -0.13 kcal/mol |
| TATTTCACGTGTATGC | 0.42 kcal/mol |
| CGTGGCACGTGGGGCT | -0.24 kcal/mol |
| GGAGGCACGTGATCGT | -0.14 kcal/mol |
| ATGGGCACGTGTCTAG | -0.07 kcal/mol |
| GAGGGCACGTGAGTGG | 0.2 kcal/mol |
| TAGCTCACGTGTGAGG | 0.28 kcal/mol |
| GGGGACACGTGGCCGG | -0.02 kcal/mol |

| Sequence | relative binding free energy |
| --- | --- |
| CGAGGCACGTGGCGGA | -0.25 kcal/mol |
| ATTCTCACGTGGTAGG | 0.24 kcal/mol |
| TGACTCACGTGCGGTT | 0.12 kcal/mol |
| GTGTACACGTGGTGTA | -0.06 kcal/mol |
| GATTTCACGTGATTAA | 0.41 kcal/mol |
| GATTCCACGTGGGGTG | -0.01 kcal/mol |
| AGGGGCACGTGTAACT | -0.07 kcal/mol |
| CTGGTCACGTGTCGGT | 0.1 kcal/mol |
| TTAGGCACGTGGAGTG | -0.16 kcal/mol |
| CTGTGCACGTGTTCGT | -0.07 kcal/mol |
| GGTGACACGTGCTGAT | 0.2 kcal/mol |
| GAAGGCACGTGGGGCC | -0.12 kcal/mol |
| ATGATCACGTGTGGTT | 0.12 kcal/mol |
| CTTTTCACGTGAGATT | 0.3 kcal/mol |
| AAGCTCACGTGGAGGG | 0.32 kcal/mol |
| GTTAACACGTGGATAT | -0.02 kcal/mol |
| GGGGTCACGTGCTGGA | 0.12 kcal/mol |
| AGTCGCACGTGGTATG | -0.23 kcal/mol |
| TGAATCACGTGGAGTT | 0.32 kcal/mol |
| TGTTACACGTGTCCGG | 0.07 kcal/mol |
| AATAACACGTGATTTG | 0.12 kcal/mol |
| GTGGTCACGTGATAGG | 0.25 kcal/mol |
| ATAAGCACGTGTGGAG | -0.12 kcal/mol |
| ATTGGCACGTGGGGAT | -0.12 kcal/mol |
| TATTTCACGTGGTTGA | 0.23 kcal/mol |

| Sequence | relative binding free energy |
| --- | --- |
| GGATTCACGTGGACGG | 0.38 kcal/mol |
| GTGTGCACGTGGTAGT | -0.04 kcal/mol |
| AGGTGCACGTGACGTA | 0.15 kcal/mol |
| GCTTACACGTGCGGGG | 0.07 kcal/mol |
| ATGGTCACGTGGACGA | 0.3 kcal/mol |
| GGGAACACGTGGGTAT | -0.06 kcal/mol |
| AGCGGCACGTGGGCGT | -0.26 kcal/mol |
| GTGAGCACGTGGGGAC | -0.19 kcal/mol |
| TGGCGCACGTGGTAAA | -0.06 kcal/mol |
| ATGTACACGTGTTTAC | 0.06 kcal/mol |
| GTGAGCACGTGCAAGT | 0.02 kcal/mol |
| GGAGACACGTGTGTGC | 0 kcal/mol |
| AGTGTCACGTGTGGCT | -0.06 kcal/mol |
| CGCGACACGTGGGGCG | -0.14 kcal/mol |
| TTAATCACGTGGATGG | 0.17 kcal/mol |
| TTGATCACGTGATATA | 0.13 kcal/mol |
| TGTTGCACGTGACAGT | 0.07 kcal/mol |
| TAAGTCACGTGAATGT | 0.19 kcal/mol |
| TTAGACACGTGGTCAG | -0.16 kcal/mol |
| ATGGGCACGTGAGAGT | 0.14 kcal/mol |
| TACGCCACGTGGTGGG | -0.26 kcal/mol |
| TGTCTCACGTGGTGCT | 0.07 kcal/mol |
| TGGTTCACGTGTAAGT | 0.24 kcal/mol |
| AATGTCACGTGGTTGG | 0.11 kcal/mol |
| TGGAGCACGTGTCGAG | -0.08 kcal/mol |

| Sequence | relative binding free energy |
| --- | --- |
| GGTGGCACGTGAGCGT | 0.06 kcal/mol |
| GTTGGCACGTGTCGTC | -0.01 kcal/mol |
| GTTGTCACGTGTCAGT | 0.02 kcal/mol |
| GTCGCCACGTGGAGGG | 0.03 kcal/mol |
| GCAATCACGTGGTTTG | 0.09 kcal/mol |
| GGTGCCACGTGTGGTA | -0.09 kcal/mol |
| CAGTGCACGTGGGAAG | -0.08 kcal/mol |
| AAGGACACGTGAGTGA | 0.35 kcal/mol |
| GTATGCACGTGATTAT | 0.18 kcal/mol |
| ATAAGCACGTGTAGGG | -0.11 kcal/mol |
| TTTCTCACGTGTAGAG | 0.25 kcal/mol |
| GTTTGCACGTGTGTCA | 0 kcal/mol |
| GGGTGCACGTGTTGTG | -0.02 kcal/mol |
| TGTTCCACGTGTGGGA | 0.06 kcal/mol |
| TTATACACGTGTCGTG | -0.06 kcal/mol |
| GGGTACACGTGGGGGA | -0.01 kcal/mol |
| TGTTCCACGTGGATTT | 0.05 kcal/mol |
| ATTGGCACGTGTCGTG | -0.1 kcal/mol |
| TGTAGCACGTGGGTGC | -0.3 kcal/mol |
| AGTGTCACGTGCAGAG | 0.02 kcal/mol |
| AGGGCCACGTGAAGGT | 0.21 kcal/mol |
| CGATTCACGTGTGGGA | 0.18 kcal/mol |
| TATGGCACGTGGAAAG | -0.09 kcal/mol |
| AATCGCACGTGATGGT | 0.13 kcal/mol |
| TAGTACACGTGGTCTT | -0.01 kcal/mol |

| Sequence | relative binding free energy |
| --- | --- |
| CGAGGCACGTGCGTGG | -0.23 kcal/mol |
| TTAGTCACGTGGGTGA | -0.1 kcal/mol |
| TAAAACACGTGGGGAT | -0.04 kcal/mol |
| AATGGCACGTGGGGTG | -0.24 kcal/mol |
| AGGGGCACGTGGAAGA | 0.04 kcal/mol |
| TGCGCCACGTGTGGGG | -0.11 kcal/mol |
| CATCTCACGTGGTGTG | 0.2 kcal/mol |
| ATCGGCACGTGGCGCG | -0.14 kcal/mol |
| GGGTTCACGTGGTGTC | 0.29 kcal/mol |
| CGAGTCACGTGGTTTG | 0.11 kcal/mol |
| CAGTTCACGTGAGTGG | 0.25 kcal/mol |
| CATTTCACGTGCATGT | 0.46 kcal/mol |
| AAGGTCACGTGAGGGT | 0.39 kcal/mol |
| GTTCACACGTGTGTGC | 0.25 kcal/mol |
| GTGTACACGTGCGGGT | 0 kcal/mol |
| AGGTCCACGTGGATTG | 0.09 kcal/mol |
| AAAGGCACGTGGTTAT | -0.14 kcal/mol |
| TTCATCACGTGTGTTA | 0.22 kcal/mol |
| TAAGTCACGTGGAGTC | 0.19 kcal/mol |
| GTTTCCACGTGATGGA | 0.45 kcal/mol |
| AAAGTCACGTGTTGCT | 0.14 kcal/mol |
